Test results reported in the antibiotic and cytotoxicity screens of Wong et al. (2023).
The other results are listed elsewhere or left out.

Experiments:
HSkMC = human skeletal muscle cells; experiment: cytotoxicity call (relative viability < 0.9); conditions: 10 µM
HepG2 = experiment: cytotoxicity call (relative viability < 0.9); conditions: 10 µM
S. aureus RN4220 = experiment: growth inhibition call (relative growth <= 0.2); conditions: 50 µM

Row | SMILES | cytotoxicity call (HSkMC) | cytotoxicity call (HepG2) | growth inhibition call (S. aureus RN4220)
1 | Cl.Nc1ccn(C2OC(CO)C(O)C2(F)F)c(=O)n1 (configuration not stated) | inactive | active | active
2 | C[C@@H]1CN([C@H](C)CO)C(=O)c2cc(NS(C)(=O)=O)ccc2O[C@@H]1CN(C)C(=O)Nc1ccc(C(F)(F)F)cc1 | inactive | inactive | inactive
3 | C[C@@H]1CN([C@H](C)CO)C(=O)c2cc(NS(=O)(=O)c3ccccc3)ccc2O[C@@H](C)CCCCO[C@H]1CN(C)Cc1ccc(C(=O)O)cc1 | inactive | inactive | inactive
4 | COc1ccc(S(=O)(=O)Nc2ccc3c(c2)C(=O)N([C@@H](C)CO)C[C@@H](C)[C@H](CN(C)S(=O)(=O)c2ccc(Cl)cc2)OCCCC[C@@H](C)O3)cc1 | inactive | inactive | inactive
5 | Cc1noc(C)c1NC(=O)N(C)C[C@@H]1Oc2ccc(NC(=O)Cn3cnnn3)cc2CC(=O)N([C@@H](C)CO)C[C@@H]1C | inactive | inactive | inactive
6 | COc1ccccc1CNC(=O)C[C@@H]1C[C@@H]2c3cc(NC(=O)Cc4ccncc4)ccc3O[C@@H]2[C@@H](CO)O1 | inactive | inactive | inactive
7 | CSCCNc1nc(SCCC(F)(F)F)nc2c1ncn2[C@@H]1O[C@H](COP(=O)(O)OP(=O)(O)C(Cl)(Cl)P(=O)(O)O)[C@@H](O)[C@H]1O | inactive | inactive | inactive
8 | COc1ccc(CN(C)C[C@@H]2OCCCC[C@H](C)Oc3ccc(NC(=O)CCC(F)(F)F)cc3C(=O)N([C@@H](C)CO)C[C@@H]2C)cc1 | inactive | inactive | inactive
9 | N=C(C[n+]1ccccc1)NO | inactive | active | inactive
10 | C[C@H]1CN([C@@H](C)CO)C(=O)c2cccc(NC(=O)C3CC3)c2O[C@@H]1CN(C)S(=O)(=O)c1ccc(F)cc1 | inactive | inactive | inactive
11 | C[C@H](CO)N1C[C@H](C)[C@H](CN(C)Cc2ccccc2)OCCCC[C@H](C)Oc2ccc(NC(=O)Nc3ccc4c(c3)OCO4)cc2C1=O | inactive | inactive | inactive
12 | CN1CCN(c2ccc(OC(F)(F)F)c(Nc3ncc4c(n3)-c3c(c(C(N)=O)nn3CCO)CC4)c2)CC1 | active | active | inactive
13 | C[C@@H]1CN([C@H](C)CO)C(=O)Cc2cc(NC(=O)Nc3ccc(C(F)(F)F)cc3)ccc2O[C@H]1CN(C)Cc1ccc(Oc2ccccc2)cc1 | active | inactive | inactive
14 | COc1cccc(NC(=O)N2C[C@H](O)COC[C@@H]3O[C@H](CC(=O)NC4Cc5ccccc5C4)CC[C@H]32)c1 | inactive | inactive | inactive
15 | Cc1noc(C)c1NC(=O)N(C)C[C@H]1Oc2ccc(NC(=O)NC(C)C)cc2C(=O)N([C@H](C)CO)C[C@@H]1C | inactive | inactive | inactive
16 | C[C@H]1CN([C@@H](C)CO)S(=O)(=O)c2ccc(C3=CCCC3)cc2O[C@@H]1CN(C)C(=O)Cc1ccncc1 | inactive | inactive | inactive
17 | CCOC(=O)[C@@](C)(N)Cc1ccc(O)c(O)c1 | active | inactive | inactive

Row | SMILES | cytotoxicity call (HSkMC) | cytotoxicity call (HepG2) | growth inhibition call (S. aureus RN4220)
18 | C[C@@H]1CN([C@H](C)CO)S(=O)(=O)c2ccc(C#CCN(C)C)cc2O[C@H]1CN(C)S(C)(=O)=O | inactive | inactive | inactive
19 | O=C(c1ccc(Cl)cc1)n1c2ccccc2c2ccccc21 | inactive | active | inactive
20 | C[C@H](CO)N1C[C@H](C)[C@@H](CN(C)Cc2ccc3c(c2)OCO3)Oc2ccc(NC(=O)CCN3CCOCC3)cc2C1=O | inactive | inactive | inactive
21 | C[C@@H]1CCCCO[C@@H](CN(C)Cc2ccc(Cl)c(Cl)c2)[C@@H](C)CN([C@H](C)CO)C(=O)c2cc(N(C)C)ccc2O1 | inactive | inactive | inactive
22 | C[C@H](CO)N1C[C@H](C)[C@H](CN(C)S(=O)(=O)c2cn(C)cn2)Oc2ncc(/C=C/c3ccccc3)cc2C1=O | inactive | inactive | inactive
23 | C[C@@H]1CCCCO[C@@H](CN(C)Cc2ccc(C(=O)Nc3ccccc3N)cc2)[C@@H](C)CN([C@H](C)CO)C(=O)c2cc(NC(=O)CCC(F)(F)F)ccc2O1 | inactive | inactive | inactive
24 | CN1C(=O)c2cc(NC(=O)C3CCC3)ccc2OC[C@H]2O[C@H](CC(=O)NCCc3ccncc3)CC[C@H]21 | inactive | inactive | inactive
25 | Cc1ccc(S(=O)(=O)N(C)C[C@@H]2Oc3c(NC(=O)NC(C)C)cccc3C(=O)N([C@H](C)CO)C[C@H]2C)cc1 | inactive | inactive | inactive
26 | C[C@H](CO)N1C[C@H](C)[C@H](CN(C)Cc2ccc(-c3ccccc3)cc2)Oc2c(NC(=O)Nc3ccc(C(F)(F)F)cc3)cccc2C1=O | inactive | inactive | inactive
27 | COc1ccc(NC(=O)Nc2ccc3c(c2)[C@@H]2C[C@@H](CC(=O)NCC(F)(F)F)O[C@@H](CO)[C@@H]2O3)cc1 | inactive | inactive | inactive
28 | C[C@@H]1CN([C@@H](C)CO)C(=O)c2cccc(NS(=O)(=O)c3ccccc3)c2O[C@@H]1CN(C)S(=O)(=O)c1ccc(F)cc1 | inactive | inactive | inactive
29 | CCO[C@H]1CN(CC)C[C@@H]1N | inactive | inactive | inactive
30 | C[C@@H]1CN([C@@H](C)CO)C(=O)Cc2cc(NC(=O)Nc3ccc(C(F)(F)F)cc3)ccc2O[C@@H]1CN(C)Cc1ccc(Oc2ccccc2)cc1 | active | active | inactive
31 | O=C(CCCCCCC(=O)Nc1ccc([C@H]2O[C@@H](CSc3nc(-c4ccccc4)c(-c4ccccc4)o3)C[C@H](c3ccc([N+](=O)[O-])cc3)O2)cc1)NO | inactive | active | inactive
32 | C[C@@H]1CCCCO[C@@H](CN(C)Cc2ccc(C(F)(F)F)cc2)[C@@H](C)CN([C@H](C)CO)C(=O)c2cc(NS(=O)(=O)c3ccc(Cl)cc3)ccc2O1 | inactive | active | inactive
33 | NC/C=C/C(=O)O | inactive | inactive | inactive
34 | CC(C)/C=C1\CC/C(=C\c2ccc(C(F)(F)F)cc2)C1=O | inactive | active | inactive
